86 sequences from the supplement of paper PMC3334620 can be followed below.

In all, about 33,000 sequences were measured (“E-score (-0.5 to 0.5)”: median about -0.016, highest 2% from about 0.32 on). The list shows a part of the results.

This test concerns the target T1, Stp1 (UniProt B3LFK1).
T1 sequence: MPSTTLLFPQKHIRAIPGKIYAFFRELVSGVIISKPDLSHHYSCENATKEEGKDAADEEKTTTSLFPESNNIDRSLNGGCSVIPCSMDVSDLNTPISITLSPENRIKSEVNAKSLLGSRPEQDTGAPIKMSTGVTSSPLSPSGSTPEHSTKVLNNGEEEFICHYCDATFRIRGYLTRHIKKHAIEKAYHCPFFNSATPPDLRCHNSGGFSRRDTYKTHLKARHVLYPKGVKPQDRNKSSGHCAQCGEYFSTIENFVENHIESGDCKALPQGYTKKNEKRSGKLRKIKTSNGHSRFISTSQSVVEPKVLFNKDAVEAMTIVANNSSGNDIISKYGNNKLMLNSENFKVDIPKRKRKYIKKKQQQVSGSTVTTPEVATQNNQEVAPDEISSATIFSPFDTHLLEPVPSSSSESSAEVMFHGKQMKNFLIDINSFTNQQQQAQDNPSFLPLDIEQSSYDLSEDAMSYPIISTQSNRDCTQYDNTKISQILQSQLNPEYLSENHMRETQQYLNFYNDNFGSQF
The test can be described thus: PBM E-score (8-mer binding enrichment) (E-score (-0.5 to 0.5)); higher = stronger / more preferred TF binding; most listed sequences are background and not binding sites. To be noted: protein concentration: 200 nM; construct: GST-full length. The gist of the method: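 E-scores (a modified Wilcoxon-Mann-Whitney statistic) were assigned by the Universal PBM Analysis Suite to every ungapped eight-base word pooled with its reverse complement. The input came from universal all-10-mer Agilent arrays made double-stranded by primer extension and probed with GST-tagged yeast transcription factors at about 100-200 nM. Fluorescent anti-GST detected bound protein, and masliner normalised the scans.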
Turning to CAACTGGC, the “PBM E-score” value came to 0.0583.

In the case of ACTTTACT, the “PBM E-score” value came out at 0.00333.

In the case of ACGGAGCA, the “PBM E-score” value stood at 0.117.

Regarding CCATACGC, the “PBM E-score” value worked out at 0.0591.

As to AGTGGTTA, the “PBM E-score” value is -0.00537.

Take AGGGTAGG: the “PBM E-score” value was -0.212.

As to AAGCCTTA, the “PBM E-score” value is 0.053.

On to GTCGTGCA, for which the “PBM E-score” value was -0.196.

With AAAGACTG, the “PBM E-score” value is -0.128.

Turning to AGTTATTC, the “PBM E-score” value is -0.0856.

For CTGGGGAC, the “PBM E-score” value is -0.392.

For GGGGTACC, the “PBM E-score” value is -0.371.

On to ATACAGTG, for which the “PBM E-score” value was -0.135.

On to ACTTGGTA, for which the “PBM E-score” value came to 0.0875.

For the sequence ATTGTAGA, the “PBM E-score” value was found to be 0.166.

As to TAGTAGAA, the “PBM E-score” value came to 0.0663.

For the sequence GGGCTTAA, the “PBM E-score” value is -0.178.

Turning to GCGGCGAA, the “PBM E-score” value was determined as 0.427.

For CCTGCTCA, the “PBM E-score” value was -0.222.

Regarding CCGCTGAA, the “PBM E-score” value was determined as 0.0649.

In the case of ACTACGAG, the “PBM E-score” value is -0.0896.

Consider AAAAAGGT, for which the “PBM E-score” value is -0.125.

In the case of AAGTAACA, the “PBM E-score” value is 0.0258.

On to GCCTTGAC, for which the “PBM E-score” value was -0.0588.

In the case of GCCCAGAA, the “PBM E-score” value is -0.194.

Consider CCTTAGCG, for which the “PBM E-score” value amounted to 0.0836.

For CTAGTAGC, the “PBM E-score” value was -0.104.

Consider CCAGCGGC, for which the “PBM E-score” value stood at 0.256.

With CTTAGACA, the “PBM E-score” value is -0.0856.

ACTCATAC: the “PBM E-score” value is 0.17.

For the sequence AAGGTCTA, the “PBM E-score” value is -0.154.

Take AATCGCAT: the “PBM E-score” value was -0.0148.

Take ATTGAAGC: the “PBM E-score” value was 0.0957.

For the sequence CCAACACA, the “PBM E-score” value was determined as 0.0312.

As for TATTTGAA, the “PBM E-score” value was found to be 0.133.

Take GGCATGAC: the “PBM E-score” value amounted to 0.0361.

Regarding TACTAATA, the “PBM E-score” value was 0.132.

As for ATAACTAT, the “PBM E-score” value was found to be 0.0337.

Turning to CTCATCTC, the “PBM E-score” value was 0.0521.

For CGGTGACG, the “PBM E-score” value was -0.0126.

Turning to GCGCGCAC, the “PBM E-score” value came out at 0.238.

For the sequence ACGCCGCC, the “PBM E-score” value came to 0.355.

As to AGTGAGTA, the “PBM E-score” value came out at 0.206.

For the sequence GTTAGACA, the “PBM E-score” value was 0.117.

For AACGCGAA, the “PBM E-score” value was determined as 0.0866.

GTCGAGTA: the “PBM E-score” value is -0.134.

Turning to CGTGTGTA, the “PBM E-score” value was 0.108.

Regarding CACTTTTA, the “PBM E-score” value was found to be 0.0976.

CGCCTCAA: the “PBM E-score” value worked out at 0.1.

As for AATGCGTG, the “PBM E-score” value is -0.0465.

Take AATCCGGA: the “PBM E-score” value was -0.102.

ATGCCGAA: the “PBM E-score” value stood at 0.311.

On to ATTCGAAT, for which the “PBM E-score” value came to 0.0494.

With GAAGACGA, the “PBM E-score” value was -0.00816.

With ACGTTGCA, the “PBM E-score” value is 0.0131.

On to CCCAGGAA, for which the “PBM E-score” value was -0.237.

For the sequence CCACCCTC, the “PBM E-score” value was -0.124.

Consider CTTGGCTA, for which the “PBM E-score” value was -0.0989.

Consider AACCTGTA, for which the “PBM E-score” value was found to be 0.0707.

As to GACCCCGC, the “PBM E-score” value was -0.034.

For ACTATTTG, the “PBM E-score” value turned out to be 0.0918.

As for AGTGGACG, the “PBM E-score” value amounted to 0.0487.

With AACCACAA, the “PBM E-score” value stood at 0.179.

Consider GCGCCTTA, for which the “PBM E-score” value came out at 0.399.

With ATTCCGAC, the “PBM E-score” value is -0.0549.

Turning to CGAAGCCA, the “PBM E-score” value worked out at 0.0367.

Turning to AGGTACAA, the “PBM E-score” value came to 0.121.

Turning to CGGAGGCA, the “PBM E-score” value came out at 0.145.

For the sequence CGACAGAC, the “PBM E-score” value is -0.174.

Turning to GTAACTAC, the “PBM E-score” value is 0.096.

Turning to AAATCTCT, the “PBM E-score” value is -0.127.

As for CCTGGACG, the “PBM E-score” value was -0.292.

Consider AACTAGGT, for which the “PBM E-score” value is 0.0442.

Turning to ACGTTCCA, the “PBM E-score” value was -0.0776.

Consider ACGCAATC, for which the “PBM E-score” value was -0.0827.

As to GGTGAACA, the “PBM E-score” value is -0.108.

Consider AACTGAGG, for which the “PBM E-score” value was 0.016.

As to AATGACTG, the “PBM E-score” value was -0.245.

As to AGCAATTA, the “PBM E-score” value was 0.0484.

As to ACCAGATA, the “PBM E-score” value was determined as 0.0921.

For the sequence AGACTAAT, the “PBM E-score” value is -0.0406.

Consider CATGTAAC, for which the “PBM E-score” value came out at 0.0489.

For TAGAGTGA, the “PBM E-score” value is -0.0691.

Regarding AGCTGGCG, the “PBM E-score” value is -0.131.

Take CCCCACTC: the “PBM E-score” value is -0.225.

On to ACCTGCTC, for which the “PBM E-score” value is -0.0541.
